# In PubChem BioAssay AID1508623 (National Center for Advancing Translational Sciences (NCATS), 2021):
# Where “and” joins values, the source holds several entries; their conditions need not be identical. Equal entries are not always repeated. Hit rate of the full screen: of about 48,000 compounds, about 450 (0.94%) were called active. Inconclusive results, whose numbers are uncertain, are shown with a selection of clear calls. Calls come from the whole dose curve; as a rule, active = well fitted inhibition curve with a large enough effect; inconclusive = small, poorly fitted or top-dose-only effect; inactive = no such curve, though single readings can be large or run the other way. Where the call is inconclusive, the potency comes from a doubtful curve fit.
# Test: Primary qHTS for Identification of Small Molecule Inhibitors of Huntingtin Promoter Activity; note: nearly all actives have a fitted effect of over 50% in size
# Conditions: HEK293 HTT promoter firefly luciferase reporter (activity 0% = vehicle and -100% = no light), 24 h; activity change, negative = inhibition: at 57.5 µM (top of the series)
# Procedure, shortened: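 Luminescence was read after Dual-Glo reagent and a 10 min room-temperature incubation. Values were normalized to vehicle (0% activity) and zero RLU (-100% activity). Reporter HEK293 cells had been exposed to compounds (up to 57.5 uM final) for 24 h.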
# Potency is the fitted concentration of half-maximal effect; tags give direction and shape of the fitted curve.
Structure (SMILES),Potency,"activity change, negative = inhibition"
COc1cccc(C(=O)N2c3ccc(C)cc3C(C)(c3ccccc3)CC2(C)C)c1 (stereo unspecified),"inconclusive: 39.8 µM [inhibitor, single point]",–
Cc1ccccc1C(=O)Nc1sc2c(c1C(=O)N1CCCCC1)CCC(C)C2 (stereo unspecified),"inconclusive: 12.6 µM [inhibitor, partial curve, poor fit]",–
O=C(NCc1cccnc1)C(=O)NCC(c1cccnc1)N1CCN(c2ccc(F)cc2)CC1 (stereo unspecified),"inconclusive: 28.2 µM [inhibitor, single point]",–
CCn1c(=O)c2sccc2n2c(CCCC(=O)N3CCN(c4cccc(Cl)c4)CC3)nnc12,–,inactive: -25.9%
CCCOc1ccc(C(=O)Nc2ccc3oc(-c4cccc(Cl)c4Cl)nc3c2)cc1,"inconclusive: 3.16 µM [inhibitor, single point]",–
CC(C)c1ccc(NC(=O)Cn2cc(S(=O)(=O)Cc3cccc(Cl)c3)c3ccccc32)cc1,"inconclusive: 39.8 µM [inhibitor, single point]",–
O=C(CCS(=O)(=O)c1nc(-c2cccs2)cc(C(F)(F)F)n1)Nc1cc(Br)ccc1O,"inconclusive: 39.8 µM [inhibitor, single point]",–
COc1ccc(C(=O)Nc2nc3n(n2)C(c2ccccc2)C=C(c2ccccc2)N3)cc1 (stereo unspecified),"inconclusive: 28.2 µM [inhibitor, single point]",–
CC(C)c1ccc(NC(=O)CSc2nc(=O)n(Cc3ccccn3)c3c2CCC3)cc1,"inconclusive: 15.8 µM [inhibitor, partial curve, poor fit]",–
CCCn1c(SCc2nc(-c3ccccc3OCC)no2)nnc1-c1ccc(Cl)cc1,"inconclusive: 35.5 µM [inhibitor, single point]",–
CCOc1ccc(OCC(=O)NCCS(=O)(=O)N2CCN(c3ccccc3F)CC2)cc1,"inconclusive: 39.8 µM [inhibitor, single point]",–
O=C(CN1C(=O)COc2ccc(Cl)cc21)Nc1cccc(F)c1,"inconclusive: 20 µM [inhibitor, partial curve]",–
CN(c1ccc(F)cc1)S(=O)(=O)N1CCCC(C(=O)NCc2cccc(Br)c2)C1 (stereo unspecified),"inconclusive: 28.2 µM [inhibitor, single point]",–
CC(=O)c1ccc(N2CCN(C(=O)CCC(=O)Nc3ccc4nc(N5CCCCC5)cc(C)c4c3)CC2)cc1,"inconclusive: 2.82 µM [inhibitor, partial curve, poor fit]",–
COc1ccc(S(=O)(=O)NCCc2csc3nc(-c4cccc(C)c4)nn23)cc1F,"inconclusive: 28.2 µM [inhibitor, partial curve, poor fit]",–
COc1ccccc1NC(=O)CSc1nnc(NC(=O)Nc2ccc(C)cc2)s1,"inconclusive: 39.8 µM [inhibitor, single point]",–
Cc1ccc(S(=O)(=O)N2CCCc3cc(NS(=O)(=O)c4cccc(Cl)c4)ccc32)cc1,"inconclusive: 25.1 µM [inhibitor, partial curve, poor fit]",–
Cc1oc(-c2ccccc2Cl)nc1CS(=O)(=O)CC(=O)NC(C)CCc1ccccc1 (stereo unspecified),"inconclusive: 31.6 µM [inhibitor, single point]",–
CCOC(=O)c1ccc(NC(=O)c2nsc3ccccc23)cc1,"inconclusive: 20 µM [inhibitor, partial curve, poor fit]",–

Structure (SMILES),Potency,"activity change, negative = inhibition"
COc1ccc(NS(=O)(=O)c2ccc3c(c2)oc(=O)n3C)cc1Cl,"inconclusive: 14.1 µM [inhibitor, partial curve]",–
COc1cccc(NC(=O)c2nnn(Cc3cccc(C(F)(F)F)c3)c2N)c1,"inconclusive: 3.55 µM [inhibitor, partial curve, poor fit]",–
COc1ccc(OC)c(S(=O)(=O)Nc2ccc3[nH]c(=O)[nH]c3c2)c1,"inconclusive: 0.708 µM [inhibitor, full curve]",–
Cc1c(C(=O)NN2CCCCC2)nn(-c2ccc(Cl)cc2Cl)c1-c1ccc(Cl)cc1,"inconclusive: 27.3 µM [inhibitor, partial curve, poor fit]",–
CCOc1ccc(NC(=O)c2ccc3c(c2)c(C)c(C)n3Cc2ccc(F)cc2)cc1,"inconclusive: 17.8 µM [inhibitor, single point]",–
Cc1ccc(C)c2sc(N3CCN(C(=O)c4ccco4)CC3)nc12,–,inactive: 0%
Cc1nc2c([nH]1)CCN(C(=O)c1ccc(NC(=O)c3ccccc3-c3ccccc3)cc1)c1ccccc1-2,–,inactive: -23%
Cc1nc(-c2ccc(S(=O)(=O)Nc3ccc(OC(F)(F)F)cc3)cc2)co1,"inconclusive: 39.8 µM [inhibitor, single point]",–
Cc1ccc(-c2nc(C(=O)Nc3cccc(C#N)c3)c3n2CCCCC3)cc1,"inconclusive: 39.8 µM [inhibitor, partial curve, poor fit]",–
CC(C)Oc1ccc(CNS(=O)(=O)c2csc(C(N)=O)c2)cc1,"inconclusive: 22.4 µM [inhibitor, partial curve, poor fit]",–
O=C1c2ccccc2C(=O)C1(c1ccccc1)N1CCN(c2cccc(C(F)(F)F)c2)CC1,"inconclusive: 22.4 µM [inhibitor, partial curve, poor fit]",–
Cc1nc2nncn2c(Nc2ccc(F)cc2)c1C,"inconclusive: 15.8 µM [inhibitor, partial curve]",–
CCOc1ccc(S(=O)(=O)N(C(C)=O)c2ccc3oc(C)c(C(=O)OC)c3c2)cc1,active: 2.51 µM,–
Cc1ccc(C)c(NC(=O)Cn2c(-c3nonc3N)nc3ccccc32)c1,"inconclusive: 35.5 µM [inhibitor, single point]",–
COc1cc(C(=O)N2CCC(N3CCN(C)CC3)CC2)ccc1Nc1ncc2c(n1)N(C)c1ccccc1C(=O)N2C,–,inactive: 13.3%
Clc1ccc(C(Cn2ccnc2)OCc2ccsc2Cl)c(Cl)c1 (stereo unspecified),"inconclusive: 22.4 µM [inhibitor, partial curve, poor fit] and inconclusive: 38.5 µM [inhibitor, single point]",–
CCOc1ccc(C2=C(C(=O)CC)Sc3nncn3N2C(=O)CC)cc1,"inconclusive: 39.8 µM [inhibitor, single point]",–
O=C(NCc1ccc(Cl)cc1)c1ccc2oc(=O)n(Cc3ccccc3)c2c1,"inconclusive: 39.8 µM [inhibitor, single point]",–
CCOc1ccc(CNC(=O)Cn2cc3c(n2)-c2c(oc(C(=O)N4CCCC4)c2C)CC3)cc1,"inconclusive: 35.5 µM [inhibitor, single point]",–

Structure (SMILES),Potency,"activity change, negative = inhibition"
CCCC1=Nc2cc(C(=O)NCC(C)c3ccccc3)ccc2Sc2ccccc21 (stereo unspecified),"inconclusive: 39.8 µM [inhibitor, single point]",–
Cc1ccc(C2c3c(-c4ccccc4O)n[nH]c3C(=O)N2CCc2ccccc2)cc1 (stereo unspecified),"inconclusive: 35.5 µM [inhibitor, partial curve]",–
CC(=O)N1c2c(cc(Br)cc2S(=O)(=O)Nc2ccc(OC(F)(F)F)cc2)CC1C (stereo unspecified),active: 25.1 µM,–
O=C(CCCn1c(=O)[nH]c2ccsc2c1=O)N1CCN(c2cccc(C(F)(F)F)c2)CC1,"inconclusive: 35.5 µM [inhibitor, single point]",–
COc1ccccc1CN(Cc1ccco1)c1cnc(S(C)(=O)=O)nc1C(=O)Nc1ccccc1Cl,"inconclusive: 28.2 µM [inhibitor, partial curve, poor fit]",–
COc1ccc(Cl)cc1NC(=O)Cn1nnc(C(=O)NCc2ccc3c(c2)OCO3)c1N,"inconclusive: 31.6 µM [inhibitor, single point]",–
Cc1ccc(Cn2c(CN3CCC(C(=O)NCC(C)c4ccccc4)CC3)cc3ccccc32)cc1 (stereo unspecified),"inconclusive: 39.8 µM [inhibitor, single point]",–
Cc1ccc(C)c(N2CCN(C(=O)C3CCCN(S(=O)(=O)c4cccc5nonc45)C3)CC2)c1 (stereo unspecified),"inconclusive: 31.6 µM [inhibitor, partial curve, poor fit]",–
O=C(Cn1cc(S(=O)(=O)N2CCN(c3ccccc3F)CC2)c2ccccc2c1=O)Nc1ccc(F)cc1Cl,–,inactive: -20.6%
COc1cc2c(C(=O)N3CCN(c4cc(Cl)ccc4C)CC3)cn(CC(C)C)c(=O)c2cc1OC,"inconclusive: 35.5 µM [inhibitor, single point]",–
CC(C)c1ccc(NC(=O)c2ccc(F)c(S(=O)(=O)N3CCN(c4ccccc4F)CC3)c2)cc1,"inconclusive: 2.82 µM [inhibitor, partial curve, poor fit]",–
CCCOc1ccc(-c2cccc(NS(=O)(=O)c3ccc(CC)cc3)c2)nn1,"inconclusive: 20 µM [inhibitor, partial curve]",–
CCC1=C(c2ccc(C)cc2)S(=O)(=O)N=C1N1CCC(C(=O)NCc2ccc(C)cc2)CC1,"inconclusive: 39.8 µM [inhibitor, single point]",–
O=C(Nc1ccc(F)cc1F)N1CCc2c(sc3c2CCCC3)C1c1ccc(F)cc1 (stereo unspecified),"inconclusive: 31.6 µM [inhibitor, partial curve, poor fit]",–
COc1ccc(-c2nc3sc(CCNS(=O)(=O)c4c(C)cc(C)cc4C)c(C)n3n2)cc1,"inconclusive: 35.5 µM [inhibitor, partial curve, poor fit]",–
Cc1cc(SCC(=O)Nc2nsc(-c3ccc(C(C)(C)C)cc3)n2)nc2ccccc12,"inconclusive: 35.5 µM [inhibitor, single point]",–
CC(=O)Nc1cccc(NC(=O)Cc2csc(COc3cccc(C)c3)n2)c1,"inconclusive: 20 µM [inhibitor, partial curve, poor fit]",–
CCc1ccc(S(=O)(=O)N(C(C)=O)c2ccc3oc4c(c3c2)CCCC4)cc1,"inconclusive: 31.6 µM [inhibitor, single point]",–
